# Experimental data taken from article PMC4336329 (PLoS ONE, 2015).
# The campaign covered roughly 310,000 compounds. About 2,200 (0.71%) showed an effect of 50% or more. The effect is printed as a negative number. The list shows a part of the results.
# Target: human ether-à-go-go-related gene (hERG) potassium channel (human, UniProt Q12809)
# Assay: primary screen, population patch clamp on CHO cells stably expressing hERG
# human ether-à-go-go-related gene (hERG) potassium channel, sequence (Q12809 whole entry, looked up): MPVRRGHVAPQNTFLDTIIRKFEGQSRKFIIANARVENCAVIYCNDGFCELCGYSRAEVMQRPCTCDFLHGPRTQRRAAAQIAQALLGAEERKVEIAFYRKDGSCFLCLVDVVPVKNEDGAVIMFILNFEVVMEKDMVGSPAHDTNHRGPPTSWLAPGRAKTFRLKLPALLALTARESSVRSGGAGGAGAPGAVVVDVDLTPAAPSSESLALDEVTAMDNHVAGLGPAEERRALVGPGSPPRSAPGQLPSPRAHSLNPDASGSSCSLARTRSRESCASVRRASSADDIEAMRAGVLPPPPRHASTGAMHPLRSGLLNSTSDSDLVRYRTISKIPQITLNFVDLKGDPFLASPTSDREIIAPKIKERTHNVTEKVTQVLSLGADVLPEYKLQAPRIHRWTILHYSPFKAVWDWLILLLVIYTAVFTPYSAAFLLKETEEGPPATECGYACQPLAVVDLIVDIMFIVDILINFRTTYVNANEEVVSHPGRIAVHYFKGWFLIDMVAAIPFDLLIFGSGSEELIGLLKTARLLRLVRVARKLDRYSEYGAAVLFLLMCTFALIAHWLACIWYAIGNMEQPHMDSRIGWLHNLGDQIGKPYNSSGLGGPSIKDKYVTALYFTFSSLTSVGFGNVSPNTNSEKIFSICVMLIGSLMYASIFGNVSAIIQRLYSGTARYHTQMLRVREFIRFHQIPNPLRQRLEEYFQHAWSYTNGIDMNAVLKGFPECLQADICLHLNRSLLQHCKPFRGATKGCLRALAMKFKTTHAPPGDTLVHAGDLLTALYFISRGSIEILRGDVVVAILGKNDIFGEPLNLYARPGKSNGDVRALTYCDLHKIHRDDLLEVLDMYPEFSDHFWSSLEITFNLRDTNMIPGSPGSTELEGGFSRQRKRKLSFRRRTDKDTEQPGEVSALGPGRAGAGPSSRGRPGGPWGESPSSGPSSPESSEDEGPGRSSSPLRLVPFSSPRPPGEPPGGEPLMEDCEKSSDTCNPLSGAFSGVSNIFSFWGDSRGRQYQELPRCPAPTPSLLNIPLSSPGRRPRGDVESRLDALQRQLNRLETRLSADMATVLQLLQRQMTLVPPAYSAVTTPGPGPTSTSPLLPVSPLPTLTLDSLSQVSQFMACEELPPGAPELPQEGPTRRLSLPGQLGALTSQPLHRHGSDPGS
row,Structure (SMILES),"hERG current change (%, negative = inhibition) at 1uM [%]"
1,CCN=C(NCC)SC1CC(=O)N(c2ccc(F)cc2)C1=O (centres unmarked),8.77
2,CCN(CC(=O)Nc1ccccc1C(F)(F)F)C(=O)c1ccccc1Cc1ccccc1,8.08
3,CS(=O)(=O)c1ccc2nc(NC(=O)c3ccccc3Cl)sc2c1,7.08
4,O=C(CCCn1c(=S)[nH]c2ccsc2c1=O)NCc1ccco1,2.08
5,COc1ccc(OCCOCC(O)CN2CCOCC2)cc1.Cl (centres unmarked),6.96
6,C=CCc1ccc(OCCCN2CCCC(C)C2)c(OC)c1.O=C(O)C(=O)O (centres unmarked),-36.6
7,Cc1ccc(C)n1-c1nccc(-c2cccs2)n1,17.7
8,CCN1CCN(P2(=O)C=C(c3ccccc3)OC(c3ccccc3)=C2)CC1,-86.5
9,Cc1cccc(-n2ccc(=O)c(C(=O)Nc3ccc(S(=O)(=O)Nc4nccc(C)n4)cc3)n2)c1,19.7
10,O=C(CN1C(=O)NC2(CCCCCCC2)C1=O)N1CCc2ccccc2C1,-1.56
11,CC(C)(C)N(Cc1ccccc1)C(=O)COC(=O)c1ccccc1SCC(=O)N1CCCC1,1.28
12,COc1ccc(Br)cc1CN(C)C(=O)Cc1ccc(OC)c(S(=O)(=O)N2CCOCC2)c1,-3.91
13,CC1(C)CC(=O)N(c2cc(Cl)cc(Cl)c2)C(=O)C1,6.38
14,COc1cc(C2CC(=O)Nc3cc(C)c(C)cc32)cc(OC)c1OC (centres unmarked),14.3
15,O=C(O)C(=O)O.c1ccc2c(c1)ncn2CCCCOc1ccc2c(c1)CCC2,8.87
16,Cc1ccccc1NS(=O)(=O)c1ccc(OCC(=O)N2CCCCC2)cc1,7.31
17,Fc1ccc(C2CC(c3ccccc3)Nc3ncnn32)cc1 (centres unmarked),-17
18,COC(=O)Nc1ccc(S(=O)(=O)Nc2ncccn2)cc1,14
19,CC(C)c1ccccc1NC(=S)N(C)C,11.4
20,CCCCn1c(N)c(N(CC(C)C)C(=O)c2ccc(OCC3CCCO3)cc2)c(=O)[nH]c1=O (centres unmarked),2.22
21,CCOC(=O)/C(=C\c1ccc([N+](=O)[O-])cc1)C(=O)c1cc(C(C)=O)c(Nc2ccccc2)s1,5.08
22,Cc1ccccc1C(=O)Nc1ccc(Br)c(C)n1,11.2
23,C=CCN(C(=O)CSc1nc2ccsc2c(=O)n1Cc1ccccn1)c1ccccc1,-1.98

row,Structure (SMILES),"hERG current change (%, negative = inhibition) at 1uM [%]"
1,CC1(C)CC(=O)C=C(NNC(=O)C2CCCCC2)C1,9.12
2,Cc1cc(/C=C(\C#N)C(=O)O)c(C)n1CC1CCCO1 (centres unmarked),10
3,C=C1CCN(Cc2ccccc2)S(=O)(=O)c2ccccc21,1.59
4,CCC(C)(C)n1nnnc1CN1CCc2ccccc21,15.1
5,CCOc1ccc(N/C=C/C(=O)c2ccc(OC)cc2)cc1,12.3
6,CC(=O)OCC1(C)CN(c2ccccc2)N(C(=O)c2ccc(F)cc2)C1=O (centres unmarked),-2.17
7,Oc1c(Cl)cc(Cl)cc1/C=C/c1ccc2cccc(O)c2n1,14.6
8,Cc1ccccc1-n1nc(C)c2c1N=C1C(Cl)=CC(Cl)=CN1C2c1ccc(C(=O)O)cc1 (centres unmarked),17.5
9,CC(C)(O)C#Cc1ccc(CN2CCCC(CNC(=O)c3ccco3)C2)cc1 (centres unmarked),16.4
10,Cc1ccc(C)c(-c2cc(C(=O)Nc3nccs3)c3ccccc3n2)c1,-6.95
11,CCOC(=O)CSc1nc2c(c(=O)n1-c1ccc(OC)cc1)SCC2,-0.153
12,CCCc1cc(-c2n[nH]c(=S)n2C(C)c2ccccc2)cs1 (centres unmarked),15
13,Cc1c(C(=O)Oc2cccc3cccnc23)cccc1[N+](=O)[O-],9.34
14,CS(=O)(=O)c1nncn1-c1ccccc1,15.7
15,CCN(CCn1cccn1)Cc1c(C(=O)N2CCCCCCC2)nc2ccc(Cl)cn12,-8.7
16,CCC1CCCCN1S(=O)(=O)c1ccc(NC(=O)c2ccncc2)cc1 (centres unmarked),10.3
17,Clc1ccc(CSc2nnnn2-c2ccc3c(c2)OCO3)c(Cl)c1,13
18,Cc1[nH][nH]c(=O)c1C(c1ccc2c(c1)OCO2)c1c(C)[nH][nH]c1=O,4.14
19,Cc1cc(C)n(-c2ccc(C(=O)NCc3cccs3)cc2)n1,-1.92
20,O=C(Nc1ccc(S(=O)(=O)N2CCCC2)cc1)c1cnccn1,16.3
21,COc1ccccc1N1N=C(c2cccs2)CC1c1ccccc1 (centres unmarked),5.35
22,CCCCn1c(O)c(C=NCCN2CCCCC2)c(=O)[nH]c1=O,3.5
23,Cc1ccc(C(C)(C)C)c(OCCN2CCCC2)c1,-0.547

row,Structure (SMILES),"hERG current change (%, negative = inhibition) at 1uM [%]"
1,N#Cc1cccc2c1-c1ccccc1/C2=N/NC(N)=S,7.69
2,COc1cc(CC(=O)NNC(=O)c2cc(C)oc2C)cc(OC)c1OC,13.3
3,CC(C)(C)c1ccc(-c2ccc3c(c2)S(=O)(=O)c2ccccc2C3=O)cc1,12.7
4,COc1ccc2nc(NNC(=O)COc3ccccc3)sc2c1,4
5,CSc1nc2nc3c(c(=O)n2[nH]1)CCCC3,5.44
6,O=C(Cc1ccccc1[N+](=O)[O-])OCC(=O)c1c[nH]c2ccccc12,17.3
7,Cc1ccc2c(C(=O)CCl)c(C)[nH]c2c1,11.7
8,CCOc1ccc(Nc2ncnc3c2cnn3-c2ccccc2)cc1,9.38
9,COc1ccc(C(=O)c2cnc(/N=C/N(C)C)s2)cc1,3.84
10,COc1cccc(N(Cc2nnc3n2CCCCC3)C(=O)Nc2ccccc2)c1,14.5
11,Cc1nn(C)cc1CNC(=O)Nc1ccc(Cl)c(Cl)c1,3.91
12,CCOc1cccc2cc(C(=O)Nc3ccccc3-c3ccccc3)c(=O)oc12,0.466
13,O=C(Nc1nnc(-c2ccc(Cl)cc2)o1)Nc1ccccc1F,9.96
14,CC1(C)CN=C(Nc2ccc(F)c(Cl)c2)S1,5.48
15,COc1ccc(N(CC(=O)Nc2ccc(C)c(C)c2)C2=NC3CS(=O)(=O)CC3S2)cc1 (centres unmarked),15.1
16,COCCN(C(=O)Cn1nnc2ccccc21)C(C(=O)NC1CCCC1)c1cccc(OC)c1OC (centres unmarked),8.66
17,N/C(=N\OC(=O)COc1ccc([N+](=O)[O-])cc1)c1ccncc1,-1.38
18,CC1=C(C(=O)OC2CCCCCCC2)C(c2cccc(O)c2)NC(=O)N1 (centres unmarked),2.91
19,COc1ccc(C(=O)ON=C2C=C(C)C(=O)C(C)=C2)cc1,7.17
20,COc1ccc(Br)c(C(=O)NC(C)(C)CO)c1,7.17
21,CCc1ccc(OCC(=O)NNC(=O)Cc2c(F)cccc2Cl)cc1,17
22,O=C(CN1C(=O)COc2ccc(S(=O)(=O)N3CCCC3)cc21)NCc1ccccn1,11.1
23,COc1ccc(S(N)(=O)=O)cc1C(=O)N1CCCC1,6.16

row,Structure (SMILES),"hERG current change (%, negative = inhibition) at 1uM [%]"
1,COc1ccc(NC(=S)N/C(=N/CS(=O)(=O)c2ccccc2)c2ccccc2)cc1,0.146
2,CN(C)/C=N/c1cnc(C(=O)c2ccc(Cl)cc2)n1C,10.2
3,COc1ccc(N2CCN(C(CNC(=O)C(=O)NCc3cccs3)c3ccco3)CC2)cc1 (centres unmarked),7.48
4,O=C(CCc1nc2ccccc2c(=O)[nH]1)N1CCN(C/C=C/c2ccccc2)CC1,-12.3
5,CC(=O)n1c(=O)oc2ccccc21,16.9
6,CCOC(=O)C1CCN(S(=O)(=O)c2cccc(C(=O)Nc3ccccc3)c2)CC1,2.34
7,CC(=O)Nc1cccc(NC(=O)c2cc3ccccc3o2)c1,12.1
8,O=C(c1cccnc1)N(c1cc2sc(=O)oc2c2ccccc12)S(=O)(=O)c1ccccc1,13
9,O=C(Nc1nc(-c2cccnc2)cs1)c1cccc([N+](=O)[O-])c1,4.12
10,CC1=C(C(=O)Nc2ccccc2C)C(c2ccccc2)NC(=O)N1 (centres unmarked),10.1
11,COC(=O)C1CCN(C(=O)CSc2nnc(-c3ccccc3)o2)CC1,12.8
12,Cc1ccc(Cn2nnc3c(=O)[nH]c(C4CCN(S(=O)(=O)c5ccc(F)cc5)CC4)nc32)cc1,4.95
13,CCn1c(CNC(=O)c2ccc(OC)cc2)nnc1SCC(=O)c1ccccc1,12.9
14,CSc1ccccc1NC(=O)C(=O)c1c[nH]c2ccccc12,0.595
15,CCOc1ccc(-c2c(C(=O)N/N=C/C3CC=CCC3)nnn2-c2nonc2N)cc1 (centres unmarked),10.3
16,O=C(NCc1ccccn1)Nc1cccc(F)c1,11.8
17,CCOC(=O)c1ccc(NC(=O)c2nc(S(=O)(=O)Cc3ccccc3)ncc2Cl)cc1,15.9
18,COc1ccc(C(=O)NCc2cccnc2)cc1C(=O)NCc1cccnc1.O,6.49
19,CC(C)(C)OC(=O)NCCCC[C@H](NC(=O)c1nc[nH]c1C(=O)N[C@@H](CCCCNC(=O)OC(C)(C)C)C(=O)OC(C)(C)C)C(=O)OC(C)(C)C,5.22
20,COC(=O)/C(=C\Nc1ccc(Oc2ccc(F)cc2F)nc1)NC(=O)c1ccccc1,13.1
